Data as given in PubChem BioAssay AID686978 (National Center for Advancing Translational Sciences (NCATS), 2013).
Values joined by “and” are separate entries in the source; they are usually repeats but may differ in a detail not shown here. Equal entries are not always repeated. Screen size: about 420,000 compounds; about 64,000 (15%) were called active. The shares of active, inactive and inconclusive entries below differ from those in the screen. Calls follow the shape of the dose curve; as a rule, active = well fitted inhibition curve with a large enough effect; inconclusive = small, poorly fitted or top-dose-only effect; inactive = flat fitted curve, though single readings scatter. A potency beside an inconclusive call is a rough fit, not a confirmed value.
% is scaled to controls: 0 for no effect and ±100 for the full control effect; potency is read from the fitted curve at half-maximal effect; tags tell the direction and shape of the fitted curve.

Assay: qHTS for Inhibitors of human tyrosyl-DNA phosphodiesterase 1 (TDP1): qHTS in cells in absence of CPT; also: nearly all actives have a fitted effect of over 55% in size
Settings: DT40 Tdp1-/- hTDP1 cells, no CPT, ATP luminescence, 48 h; activity change, negative = growth inhibition: at 46.2 µM (top of the series) unless noted
Procedure, shortened: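 Seeded 400 DT40-hTDP1 cells/well (vehicle DMSO, no 20 nM CPT); pinned compounds; ≥48 hr at 37 °C; CellTiter-Glo luminescence as viability measure.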
In the case of CCn1c(COc2ccccc2)nnc1SCC(=O)c1cccc([N+](=O)[O-])c1, the Potency is reported as inconclusive: 29.1 µM [inhibitor, single point].
In the case of CN(C)S(=O)(=O)n1cc(/C=C(\NC(=O)c2ccccc2F)C(=O)NCCCn2ccnc2)c2ccccc21, the Potency is reported as “inactive and inconclusive: 16.4 µM [inhibitor, single point]”.
In the case of C(=NN1CCCCCC1)c1cccc2ccccc12, the Potency is reported as inconclusive: 16.4 µM [inhibitor, partial curve].
For Cc1ccccc1CN1CCC(CNc2ncnc3onc(-c4ccc(Cl)cc4)c23)CC1, the Potency was active: 16.4 µM.
With COc1cccc(N=Nc2c(N)[nH][nH]c2=O)c1 the activity change, negative = growth inhibition was inconclusive: -35.7% [inhibitor].
In the case of Cc1noc(C)c1CSc1nc2ccccc2s1, the Potency is reported as inconclusive: 18.4 µM [inhibitor, partial curve].
In the case of COc1cc(=O)n2c(c1C(=O)NCc1nonc1C)CCN(Cc1c[nH]c3ccccc13)CC2, the Potency is reported as inconclusive: 16.4 µM [inhibitor, single point].
With Cc1c(OC(C)C(=O)NCc2ccccn2)ccc2c3c(c(=O)oc12)CCC3 (centres undefined) the Potency was inconclusive: 23.1 µM [inhibitor, single point].
For O=C(Cc1csc2ccccc12)NCc1cccc(Br)c1, the Potency was active: 20.6 µM.
For Cc1ccc2c(C)nc(N/C(N)=N/S(=O)(=O)c3ccc([N+](=O)[O-])cc3)nc2c1, the Potency was inconclusive: 20.6 µM [inhibitor, single point].
In the case of Cc1ccc2nc(/C(C#N)=C/c3cccc(Br)c3)[nH]c2c1, the Potency is reported as active: 16.4 µM.
With CCCn1c(C2CCCN2c2nc(-c3cccc(Br)c3)cs2)nc2ccccc21 (centres undefined) the Potency was inconclusive: 23.1 µM [inhibitor, single point].
For CCOC(=O)N1CCN(C(=O)c2ccccc2NC(=O)COc2ccccc2C)CC1, the Potency was active: 20.6 µM.
In the case of CCN1CCN(C(=O)c2ccc3nc(-c4ccccc4)c(-c4ccccc4)nc3c2)CC1, the Potency is reported as “inactive”.
With CSCc1cc(N2CCCC2)nc(-c2ccccc2)n1 the activity change, negative = growth inhibition was inconclusive: -31.8% [inhibitor].
For CC(=O)C1=C(C)N(Cc2ccccc2)C(=O)N[C@@H]1c1cccc(C(F)(F)F)c1, the Potency was inconclusive: 11.6 µM [inhibitor, partial curve, poor fit].
In the case of Cc1ccc(C(=O)ONc2ccc(N=O)cc2)cc1, the Potency is reported as “inactive”.
In the case of Cc1cc(NC(=O)CCCN2C(=O)/C(=C/c3ccccc3Cl)SC2=S)no1, the Potency is reported as inconclusive: 29.1 µM [inhibitor, single point].
In the case of CCCc1nc2oc3c(OC)ncnc3c2c2c1COC(C)(C)C2, the Potency is reported as active: 20.6 µM.
